Among all 310,000 compounds or so, about 2,200 (0.71%) showed an effect of 50% or more. The effect is printed as a negative number. This is one part of the list.
Each compound was assayed against human ether-à-go-go-related gene (hERG) potassium channel (human, UniProt Q12809) (assay: primary screen, population patch clamp on CHO cells stably expressing hERG).
Sequence of human ether-à-go-go-related gene (hERG) potassium channel (Q12809 whole entry, looked up): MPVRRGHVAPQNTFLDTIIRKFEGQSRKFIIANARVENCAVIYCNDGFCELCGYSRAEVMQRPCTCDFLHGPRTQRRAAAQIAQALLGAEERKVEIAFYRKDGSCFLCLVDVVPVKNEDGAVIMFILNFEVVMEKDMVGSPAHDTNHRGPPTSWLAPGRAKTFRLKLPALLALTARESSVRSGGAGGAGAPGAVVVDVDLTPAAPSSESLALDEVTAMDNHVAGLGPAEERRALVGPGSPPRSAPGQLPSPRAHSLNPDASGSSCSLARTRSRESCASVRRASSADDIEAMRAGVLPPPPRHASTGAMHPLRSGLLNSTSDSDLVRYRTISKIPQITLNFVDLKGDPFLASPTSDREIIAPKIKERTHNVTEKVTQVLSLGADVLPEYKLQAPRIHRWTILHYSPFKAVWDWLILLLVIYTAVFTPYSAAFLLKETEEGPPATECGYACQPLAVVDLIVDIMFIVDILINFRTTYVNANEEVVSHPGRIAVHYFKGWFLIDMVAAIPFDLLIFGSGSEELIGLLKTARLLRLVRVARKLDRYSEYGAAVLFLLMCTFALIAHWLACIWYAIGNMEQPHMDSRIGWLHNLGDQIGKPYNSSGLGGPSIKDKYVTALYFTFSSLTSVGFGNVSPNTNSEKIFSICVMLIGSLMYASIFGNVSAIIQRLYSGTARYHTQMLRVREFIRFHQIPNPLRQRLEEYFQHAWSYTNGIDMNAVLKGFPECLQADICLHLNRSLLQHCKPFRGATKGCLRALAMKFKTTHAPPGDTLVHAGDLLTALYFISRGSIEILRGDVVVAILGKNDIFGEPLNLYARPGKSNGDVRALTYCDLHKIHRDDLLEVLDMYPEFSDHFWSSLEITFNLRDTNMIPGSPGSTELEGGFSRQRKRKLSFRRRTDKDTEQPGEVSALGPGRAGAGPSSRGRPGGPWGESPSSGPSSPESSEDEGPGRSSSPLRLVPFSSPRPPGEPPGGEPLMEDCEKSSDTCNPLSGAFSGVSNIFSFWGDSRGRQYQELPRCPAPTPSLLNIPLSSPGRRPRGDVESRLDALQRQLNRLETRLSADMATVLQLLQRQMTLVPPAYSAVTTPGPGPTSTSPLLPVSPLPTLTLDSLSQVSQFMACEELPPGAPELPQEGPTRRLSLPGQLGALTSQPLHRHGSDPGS

Structure (SMILES) | hERG current change (%, negative = inhibition) at 1uM
CCC(=O)N(c1ccc(F)cc1)C1C=CS(=O)(=O)C1 (stereo not shown) | 8.34%
CC1(C(=O)NCc2ccc(Cl)c(Cl)c2)Oc2ccccc2NC1=O (stereo not shown) | 6.03%
Cc1ccc(-n2ncc3c(=O)n(Cc4ccccn4)cnc32)cc1C | -0.792%
O=C(CSc1nc2ccccc2o1)Nc1nncs1 | 14.9%
O=C(C1CCCO1)N1CCN(C(=S)Nc2ccc(Br)cc2)CC1 (stereo not shown) | 10.4%
COc1cccc(CN(C(=O)COc2ccc(Cl)cc2)C2CCS(=O)(=O)C2)c1 (stereo not shown) | 5.28%
COc1ccc(-c2csc(Nc3cccc(C)n3)n2)cc1C | 11.8%
COc1ccc(NC(=S)NCCCc2ccccc2)cc1 | 3.53%
N#CC1(NC(=O)CSc2nnc(Cc3ccccc3)o2)CCCCC1 | 8.97%
CCOC(=O)c1c(-c2ccc(C)o2)csc1NC(=O)CSc1nnc(C)s1 | 13.6%
O=S(=O)(NCC(c1ccc2c(c1)OCO2)N1CCN(c2ccccc2)CC1)c1ccccc1 (stereo not shown) | 14%
COc1ccc(-c2c[n+]3c4n2CCCCC4=C(c2ccc(Br)cc2)C3)cc1.[Br-] | -79.6%
O=C1[C@@H]2C3C=CC(O3)[C@@H]2C(=O)N1c1ccccc1 | 12.7%
CCOc1ccc(OCCOC(=O)CN(C)S(=O)(=O)c2ccc(NC(C)=O)cc2)cc1 | 5.33%
CN(C)CCSc1nnc2sc3ccccc3n12 | 3.31%
N#Cc1cnn2c(N)c(-c3ccc(Cl)cc3)cnc12 | 16.2%
O=C(c1cc(-c2cccc(Br)c2)nc2ccccc12)N1CCCC1 | 4%
CCCNC(=O)COc1coc(CN2CCN(C(=O)c3ccco3)CC2)cc1=O | 7.77%
Cc1cc(C)nc(SCNC(=O)c2ccccc2)n1 | 8.19%
CN(C)C(=O)C(=O)c1c(-c2ccccc2)cc2ccccn12 | 9.87%
OC(COCC(F)(F)C(F)(F)C(F)(F)C(F)F)Cn1c2ccccc2c2ccccc21 (stereo not shown) | 4.98%
Cc1cccc2cc3c(N)c(C#N)sc3nc12 | 14.9%

Structure (SMILES) | hERG current change (%, negative = inhibition) at 1uM
O=C(CN1CCN(c2ccccn2)CC1)Nc1ccc(Cl)c(C(F)(F)F)c1 | 0.117%
O=C(CCN1CCN(S(=O)(=O)c2ccc(Cl)cc2)CC1)Nc1ccccc1F | 4.11%
CN(CC(=O)Nc1ccc(F)cc1)C(=O)c1cc(-c2ccco2)nc2ccccc12 | 10.1%
Cc1ccc(CNC(=O)c2ccc(N3CCC4(CC3)CC(c3cccc(Br)c3)=NO4)c([N+](=O)[O-])c2)cc1 | 10.6%
CS(=O)(=O)c1cccc(C(=O)OCC(=O)Nc2ccc3c(c2)OCO3)c1 | 3.48%
CC1CCN(CCCNC(=O)C2CCN(S(=O)(=O)N3CCC4(CC3)OCCO4)CC2)CC1 | 12.7%
C=CCn1c(SCC(=O)Nc2ncc(Cc3ccc(C)c(Cl)c3)s2)nnc1-c1ccncc1 | 8.97%
COc1ccc(-c2cn3cccnc3n2)cc1NC(=O)CC(C)C | 10.2%
CCC1=C(OC(=O)N(CC)CC)N2C(=O)OC(=NCc3ccccc3)[C@]2(C)[C@H]2C1=CC[C@H]1C(=O)N(c3ccccc3)C(=O)[C@H]12 | -4.57%
O=C(O)CCC(=O)NNC(=O)c1cccc(Cl)c1 | 12.1%
Cc1ccc(NC(=S)NCc2ccccc2)cc1C | 14.3%
CCCCn1c(SCC(=O)Nc2cc(C(F)(F)F)ccc2Cl)nnc1C(CC)N(C)C (stereo not shown) | -1.24%
COc1ccc(S(=O)(=O)NCCC(=O)Nc2ccc(C)cc2)cc1 | 8.93%
COc1ccc(N(CC(=O)N2CCN(C)CC2)S(=O)(=O)c2cc(C)ccc2OC)cc1Cl | -15.8%
CCN(C(=O)COC(=O)Cn1c(C)csc1=O)c1c(N)n(Cc2ccccc2)c(=O)[nH]c1=O | 2.6%
C=CCc1ccc(OC(=O)c2ccccc2)c(OC)c1 | 14.9%
O=C(c1ccco1)N1CCN(c2cc(C(F)(F)F)nc3ncnn23)CC1 | 1.59%
O=S1(=O)C[C@@H](O)[C@@H](Nc2ccc(Cl)cc2)C1 | 10.7%
CC(C)(C)N(Cc1ccccc1)C(=O)COC(=O)/C=C/c1ccc2c(c1)OCO2 | -4.1%
CCC(C)C(=O)N[C@@H](c1ccccc1)[C@@H](O)C(=O)O[C@H]1C[C@@]2(O)[C@@H](OC(=O)c3ccccc3)C3[C@](C)(C(=O)[C@H](OC(C)=O)C(=C1C)C2(C)C)[C@@H](O)C[C@H]1OC[C@@]31OC(C)=O (stereo partly shown) | 7.34%
COc1ccc(S(=O)(=O)N2CCC(C(=O)Nc3ccccc3N3CCCC3)CC2)cc1OC | 9.19%
COC(=O)C1(C)NC(c2ccccc2C)C2C(=O)N(c3ccc(F)cc3)C(=O)C21 (stereo not shown) | 4.52%

Structure (SMILES) | hERG current change (%, negative = inhibition) at 1uM
N#CC(c1ccc(Cl)nn1)c1ccccc1Cl (stereo not shown) | 4.99%
COc1ccc(C(CNC(=O)c2ccc(-c3cccc(C(F)(F)F)c3)o2)N2CCOCC2)cc1 (stereo not shown) | 16.9%
CC1(C(=O)NCCc2c[nH]c3ccccc23)C=CC2(CCCCC2)N1C(=O)c1ccccc1 (stereo not shown) | 2.59%
COc1ccc(NC(=O)c2ccc(S(=O)(=O)N3CCCCC3)cc2)c(OC)c1 | 10.5%
O=[N+]([O-])c1ccc(/C=N/n2c(-c3ccccc3)n[nH]c2=S)cc1 | 12.5%
Cc1cc(C)c(S(=O)(=O)N(C)CC(N)=O)c(C)c1 | 11.7%
Cc1ccccc1NC(=O)c1cccc(S(=O)(=O)Nc2cccc(C(=O)O)c2)c1 | 14.1%
Cc1cc(-c2n[nH]c(=S)n2/N=C/c2ccc(C)s2)n[nH]1 | 16.1%
O=C(NCCc1c[nH]c2ccccc12)C1CCN(S(=O)(=O)c2ccccc2F)CC1 | 14.8%
O=C(COc1ccccc1)Nc1ccccc1Oc1ccccc1 | 5.9%
CC(=O)Nc1ccc(C(=O)OCC(=O)N2CCC(Cc3ccccc3)CC2)cc1 | 11.8%
Cc1ccc(COc2cccc(/C=N/NC(=O)c3nnn(-c4nonc4N)c3C)c2)cc1 | 21.3%
CCSc1nsc(NC(=O)Nc2cccc(OC)c2)n1 | 0.414%
Cc1oc(-c2ccccc2F)nc1CSCC(=O)NCc1ccc2c(c1)OCO2 | 1.31%
COc1ccc(CN2C(=NC(=O)C3CC3)SC3CS(=O)(=O)CC32)cc1OC (stereo not shown) | 2.11%
O=C1CC(c2cccc(O)c2)Oc2ccccc21 (stereo not shown) | -1.44%
O=S(=O)(c1ccc(C(F)(F)F)cc1)N1CCCN(c2ccc(C(F)(F)F)cn2)CC1 | 8.1%
COC(=O)C1CCN(C(=O)COC(=O)C2CCN(S(=O)(=O)c3ccc(C)c(C)c3)CC2)CC1 | 16.6%
O=C(CN(Cc1cccs1)C(=O)CSc1nnc(COc2ccccc2)o1)NC1CCCC1 | 8.25%
Cc1ccccc1OCCC(=O)Nc1cc(S(=O)(=O)N2CCOCC2)ccc1OC(C)C | 9.36%
Cc1ccccc1CN(CC1CCC(C(=O)O)CC1)C(=S)Nc1ccccc1F (stereo not shown) | 12.5%
COc1ccc(C2=C(c3ccc([N+](=O)[O-])cc3)C(=O)OC2)cc1 | 4.1%

Structure (SMILES) | hERG current change (%, negative = inhibition) at 1uM
Nc1nc(SCC(=O)NCCCO)nc2sc3c(c12)CCC3 | 10.4%
O=C(Cc1ccccc1[N+](=O)[O-])Nc1cccc(S(=O)(=O)NC2=NCCCCC2)c1 | 15.8%
CCOC(=O)C1(Cc2ccc(Cl)cc2)CCN(C(=O)C2CCCO2)CC1 (stereo not shown) | 4.14%
CCCOc1ccc(C(=O)NCC(C)(C)N2CCOCC2)cc1 | -4.68%
C=CCn1c(C)cc(C(=O)COC(=O)/C=C/c2cccc(OC)c2)c1C | 10.5%
Cn1c(CN2CCCC2)nc2cc(NC(=O)COc3ccccc3)ccc21 | -12.4%
COc1ccc(-n2c(=S)[nH]c3[nH]ncc3c2=O)cc1 | 15.9%
CN(C(=O)c1ccoc1)c1ccc2ccccc2c1 | 5.99%
O=C1c2cc([N+](=O)[O-])ccc2-c2ncccc21 | 9.72%
CCOC(=O)c1ccc(N2CN(CC)CNC2=S)cc1 | 15.5%
c1nnnn1C12CC3CC(CC(C3)C1)C2 | 13.5%
COc1ccc2[nH]c(C(=O)O)c(NS(=O)(=O)c3ccc(C)cc3C)c2c1 | 13.2%
COc1ccc(CCNC(=O)C(CCC(N)=O)NS(=O)(=O)c2ccc(Cl)cc2)cc1OC (stereo not shown) | 16%
CCCCCCCCCC[N+](C)(C)CC/C=C1/c2ccccc2Sc2ccc(Cl)cc21.[Br-] | 1.09%
Nc1n[nH]c(CO)n1.O=C(O)CO | 18.5%
O=c1c2ccccc2nc(/C=C/c2ccc(F)cc2)n1-c1ccccn1 | 9.86%
O=C(/C=C/c1ccccc1)NCC1(c2ccccc2)CCOCC1 | 10.9%
CN(C)S(=O)(=O)c1cccc(NC(=O)CCCc2nc3ccccc3c(=O)[nH]2)c1 | 9.64%
COC(=O)c1sc(S(=O)(=O)Nc2ccc(Br)cc2)c(C(=O)OC)c1C | 10.6%

From paper PMC4336329 (PLoS ONE, 2015)
